# According to PMC4336329 (PLoS ONE, 2015):
# Out of some 310,000 compounds screened, about 14,000 (4.5%) showed an effect of 50% or more. Effects have a minus sign here. The list shows a part of the results.
# Biological target: human ether-à-go-go-related gene (hERG) potassium channel (human, UniProt Q12809)
# Experiment: primary screen, population patch clamp on CHO cells stably expressing hERG
# 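Also: peak tail current of the secondary pulse compared with the same well before compound.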
# human ether-à-go-go-related gene (hERG) potassium channel, sequence (Q12809 whole entry, looked up): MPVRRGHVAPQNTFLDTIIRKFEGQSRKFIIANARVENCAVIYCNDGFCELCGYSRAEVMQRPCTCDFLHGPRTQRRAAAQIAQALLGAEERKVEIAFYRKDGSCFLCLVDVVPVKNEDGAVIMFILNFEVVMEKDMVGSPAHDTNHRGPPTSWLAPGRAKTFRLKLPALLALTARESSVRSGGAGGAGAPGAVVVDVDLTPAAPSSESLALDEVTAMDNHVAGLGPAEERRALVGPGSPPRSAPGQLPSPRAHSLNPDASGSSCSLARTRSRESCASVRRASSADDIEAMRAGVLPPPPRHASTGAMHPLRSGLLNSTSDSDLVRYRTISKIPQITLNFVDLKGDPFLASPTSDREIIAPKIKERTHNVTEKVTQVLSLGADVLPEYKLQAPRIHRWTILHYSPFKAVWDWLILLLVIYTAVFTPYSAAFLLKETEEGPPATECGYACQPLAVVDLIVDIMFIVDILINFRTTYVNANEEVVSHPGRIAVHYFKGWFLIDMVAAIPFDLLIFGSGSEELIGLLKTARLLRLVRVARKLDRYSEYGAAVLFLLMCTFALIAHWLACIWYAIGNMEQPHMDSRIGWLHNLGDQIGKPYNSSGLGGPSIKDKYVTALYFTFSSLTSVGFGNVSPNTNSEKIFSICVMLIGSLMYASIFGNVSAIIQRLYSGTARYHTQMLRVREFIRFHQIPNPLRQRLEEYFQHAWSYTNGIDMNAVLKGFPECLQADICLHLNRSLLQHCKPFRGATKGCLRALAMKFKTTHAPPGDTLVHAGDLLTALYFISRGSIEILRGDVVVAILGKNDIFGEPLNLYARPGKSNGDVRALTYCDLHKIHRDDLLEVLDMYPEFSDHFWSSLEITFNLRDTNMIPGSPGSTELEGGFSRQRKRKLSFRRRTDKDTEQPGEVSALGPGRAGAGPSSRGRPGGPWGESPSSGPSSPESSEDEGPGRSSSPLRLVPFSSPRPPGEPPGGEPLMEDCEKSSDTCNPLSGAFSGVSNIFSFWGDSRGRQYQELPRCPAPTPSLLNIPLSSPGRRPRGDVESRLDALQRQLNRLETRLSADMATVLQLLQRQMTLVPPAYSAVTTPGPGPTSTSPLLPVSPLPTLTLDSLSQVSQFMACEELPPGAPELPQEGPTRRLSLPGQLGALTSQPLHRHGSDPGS
row,SMILES,"hERG current change (%, negative = inhibition) at 10uM [%]"
1,CC(C)(C)NC(=O)C(=O)N/N=C/c1ccc(Br)cc1,14.7
2,O=Cc1cn(-c2ccc(F)cc2)c2ccccc12,3.99
3,OC1CCN(C(=S)Nc2ccc(Oc3ccccc3)cc2)CC1,0.0974
4,COC(C)(C)[C@@H](O)COc1c2ccoc2cc2oc(=O)ccc12,3.23
5,CN(C(=O)C1CCN(c2ncnc3c2nc2n3CCCCC2)CC1)C1CCCCC1,-30.2
6,CCCn1c(SCCN2CCOCC2)nc2c1c(=O)n(C)c(=O)n2C,14.2
7,Cc1cccc(OCC(=O)N/N=C\c2cc3c(cc2[N+](=O)[O-])OCO3)c1C,-7.82
8,Cc1cccc(C(=O)NNC2=CC(=O)CC(C)(C)C2)c1O,15
9,O=C1CCCc2ccccc2N1Cc1ccccc1,5.83
10,Cc1ccc(NC(=S)NC(NC(=O)c2ccco2)C(Cl)(Cl)Cl)cc1 (stereo not drawn),-3.41
11,O=C1CC[C@H](OCc2ccccc2)CCN1[C@H](CSc1ccccc1)Cc1ccccc1,-51
12,COC(=O)/C=C/c1ccc(-n2cncn2)cc1,6.87
13,CN(Cc1cccnc1)C(=O)CNC(=O)COc1ccccc1,16.9
14,COc1ccc(OC)c(NC(=O)Nc2ccc(Cl)cc2)c1,2.47
15,CCOC(=O)C1(c2csc(N)n2)COC(=O)C1 (stereo not drawn),8.49
16,Cn1c(=O)c2c(nc(CN3CCOCC3)n2CCCO)n(C)c1=O,17
17,COc1ccc(S(=O)(=O)N2CCN(C(=O)C3CC3)CC2)cc1,4
18,CCC(=O)NCCn1c(C)cc2ccccc21,-0.267
19,Cc1ccc(CN(c2ccc(C(=O)NCc3ccc4c(c3)OCO4)cc2)S(C)(=O)=O)cc1,5.34

row,SMILES,"hERG current change (%, negative = inhibition) at 10uM [%]"
1,O=C(O)COc1cccc(/C=C2/SC(=S)N(Cc3ccccc3)C2=O)c1,0.27
2,Cc1cc(NC(=O)COC(=O)c2ccco2)no1,17.5
3,CC(C)c1csc(CN2CCC(CO)(Cc3ccccc3)CC2)n1,-9.39
4,CCC(C)NC(=O)C1c2ccccc2C(=O)N1Cc1ccccc1OC (stereo not drawn),-16.7
5,COC(=O)c1sc(NC(=O)COc2c(C)cccc2C)nc1C,-0.354
6,CCOC(=O)c1c(C)[nH]c(C)c1S(=O)(=O)N(C)CC(=O)NCc1cccc(C)c1,-13.3
7,Cc1cc(C(=O)O)c2ccccc2n1,12.6
8,Cc1onc(-c2c(F)cccc2Cl)c1C(=O)NCc1cccs1,-21.2
9,O=C(Cc1ccc(S(=O)(=O)N2CCOCC2)s1)Nc1ccccc1N1CCCC1,2.61
10,Cc1c(-c2ccccc2)oc2c(C(=O)OCC(=O)Nc3ccc(C(N)=O)cc3)cccc2c1=O,2.76
11,O=C(/C=C/c1ccco1)NCCCN1CCN(CCCNC(=O)/C=C/c2ccco2)CC1,-43.5
12,COc1ccc(CCNC(=O)COC(=O)Cn2cnc3c2c(=O)n(C)c(=O)n3C)cc1,7.36
13,COc1ccc(C(=O)CSc2nc3nc(C)cc(C)n3n2)cc1OC,-7.48
14,CC(=O)NCCC(=O)Nc1cc(S(=O)(=O)Nc2ccc(Cl)cc2)ccc1N1CCCC1,13.4
15,COc1ccc(C(=O)C2CCCN(Cc3ccsc3)C2)cc1OC (stereo not drawn),-73.8
16,NC(=O)c1cc2cc(Cl)ccc2oc1=Nc1cccc(C(F)(F)F)c1,21
17,CCN1CCN(CC(=O)Nc2ccc3c(c2)OCCO3)C(=O)C1=O,22.7
18,O=C(COC(=O)c1ccccc1NC(=O)c1ccco1)NCCC1=CCCCC1,-8.73
19,Cc1noc(C)c1C(=O)OCC(=O)N(C)C1CCS(=O)(=O)C1 (stereo not drawn),19.8

row,SMILES,"hERG current change (%, negative = inhibition) at 10uM [%]"
1,CCOc1ccc(-c2nnn(CC(=O)N3CCN(c4ccc(F)cc4)CC3)n2)cc1OCC,11.4
2,CC(=O)Nc1ccc(C(=O)N(C)C(C(=O)Nc2ccc(C)cc2)c2ccccn2)cc1 (stereo not drawn),-7.71
3,NC1=NC[C@H](Cc2ccc(O)cc2)N1CCCCC1CCCCC1,-50.2
4,C=CCn1c(C(c2ccccc2)c2ccccc2)n[nH]c1=S,4.89
5,COc1cccc(Nc2nc3ccccc3n3nnnc23)c1,22.1
6,O=C(CNC(=S)NC(=O)C1CCCCC1)c1ccccc1,9.03
7,COc1ccc(CC(NC(C)=O)C(=O)NC2CCN(C(=O)NCc3ccccc3)CC2)cc1 (stereo not drawn),6.59
8,C#CC(C)(C)NC(=O)c1sccc1Oc1ccc(F)cc1[N+](=O)[O-],1.94
9,COC(=O)c1nnn(-c2cc(Cl)cc(Cl)c2)c1C(=O)OC,8.74
10,COc1ccc(S(C)(=O)=O)cc1S(C)(=O)=O,0.58
11,Cc1cc(C)n(CCc2nc(-c3ccc(F)cc3)cs2)n1,-16.7
12,COc1ccccc1CNC(=O)CN1C(=O)COc2ccc(S(=O)(=O)N3CCCCC3)cc21,6.87
13,Cc1ccc(NC(=O)c2cccc(C(=O)Nc3ccc(C)cc3C(=O)O)c2)c(C(=O)O)c1,20.1
14,COc1cccc(NS(=O)(=O)c2c(C(=O)N3CCCCCC3)c(C)n(C)c2C)c1,-6.52
15,COC(=O)[C@@H](NC(=O)Nc1ccccc1F)C(C)C,3.57
16,Cc1cccc(CN2C(=O)c3ccccc3S(=O)(=O)c3ccc(C(=O)NCCCN4CCCC4)cc32)c1,-5.34
17,CCCCCCCCn1c(N2CCN(c3cccc(Cl)c3)CC2)nc2c1c(=O)[nH]c(=O)n2C,5.65
18,CCOC(=O)c1[nH]c(C)c(C(=O)NCc2ccc(Cl)cc2)c1C,8.19
19,CC1CCCN(C(=O)COC(=O)c2cc([N+](=O)[O-])ccc2N2CCOCC2)C1 (stereo not drawn),-14.6
